According to patent publication US20090311253A1 (AbbVie / Abbott, published 2009):

What was measured:
[1] = target: T1, Recombinant Human IL-13 (human, UniProt P35225 fragment, limits assumed); experiment: Biacore SPR
Procedure: The BIACORE assay (Biacore, Inc, Piscataway, N.J.) determines the affinity of antibodies or DVD-Ig with kinetic measurements of on-rate and off-rate constants. Binding of antibodies or DVD-Ig to a target antigen (for example, a purified recombinant target antigen) is determined by surface plasmon resonance-based measurements with a BiacoreR 1000 or 3000 instrument (Biacore® AB, Uppsala, Sweden) using running HBS-EP (10 mM HEPES [pH 7.4], 150 mM NaCl, 3 mM EDTA, and 0.005% surfactant P20) at 25° C. All chemicals are obtained from Biacore® AB (Uppsala, Sweden) or otherwise from a different source as described in the text. For example, approximately 5000 RU of goat anti-mouse IgG, (Fcγ), fragment specific polyclonal antibody (Pierce Biotechnology Inc, Rockford, Ill.) diluted in 10 mM sodium acetate (pH 4.5) is directly immobilized across a CM5 research grade biosensor chip using a standard amine coupling kit according to manufacturer's instructions and procedures at 25 μg/ml. Unreacted moieties on the biosensor surface are blocked with ethanolamine. Modified carboxymethyl dextran surface in flowcell 2 and 4 is used as a reaction surface. Unmodified carboxymethyl dextran without goat anti-mouse IgG in flow cell 1 and 3 is used as the reference surface. For kinetic analysis, rate equations derived from the 1:1 Langmuir binding model are fitted simultaneously to association and dissociation phases of all eight injections (using global fit analysis) with the use of Biaevaluation 4.0.1 software. Purified antibodies or DVD-Ig are diluted in HEPES-buffered saline for capture across goat anti-mouse IgG specific reaction surfaces. […] The association and dissociation rate constants, kₒₙ (M⁻¹s⁻¹) and koff (s⁻¹) are determined under a continuous flow rate of 25 μl/min. […] The equilibrium dissociation constant (M) of the reaction between antibodies or DVD-Igs and the target antigen is then calculated from the kinetic rate constants by the following formula: KD=koff/kₒₙ. Binding is recorded as a function of time and kinetic rate constants are calculated.

[2] = target: T1, Recombinant Human IL-13; experiment: direct bind ELISA
Procedure: Enzyme Linked Immunosorbent Assays to screen for antibodies that bind a desired target antigen were performed as follows. High bind ELISA plates (Corning Costar # 3369, Acton, Mass.) were coated with 100 μL/well of 10 μg/ml of desired target antigen (R&D Systems, Minneapolis, Minn.) or desired target antigen extra-cellular domain/FC fusion protein (R&D Systems, Minneapolis, Minn.) or monoclonal mouse anti-polyhistidine antibody (R&D Systems # MAB050, Minneapolis, Minn.) in phosphate buffered saline (10×PBS, Abbott Bioresearch Center, Media Prep# MPS-073, Worcester, Mass.) overnight at 4° C. Plates were washed four times with PBS containing 0.02% Tween 20. Plates were blocked by the addition of 300 μL/well blocking solution (non-fat dry milk powder, various retail suppliers, diluted to 2% in PBS) for ½ hour at room temperature. Plates were washed four times after blocking with PBS containing 0.02% Tween 20.
Plates were washed 4 times with PBS containing 0.02% Tween 20.
One hundred microliters of enhanced TMB solution (Neogen Corp. #308177, K Blue, Lexington, Ky.) was added to each well and incubated for 10 minutes at room temperature. The reaction was stopped by the addition of 50 μL 1N sulphuric acid. Plates were read spectrophotometrically at a wavelength of 450 nm.

[3] = target: T1, Recombinant Human IL-13; experiment: cell-based or functional assay

T1 sequence (P35225 35-146 limits assumed): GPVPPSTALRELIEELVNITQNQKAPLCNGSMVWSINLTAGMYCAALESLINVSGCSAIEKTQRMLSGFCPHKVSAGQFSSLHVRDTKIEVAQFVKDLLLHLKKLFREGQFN

B1: DVD286 (bispecific antibody, human IgG1, kappa)
heavy: EVTLRESGPGLVKPTQTLTLTCTLYGFSLSTSDMGVDWIRQPPGKGLEWLAHIWWDDVKRYNPALKSRLTISKDTSKNQVVLKLTSVDPVDTATYYCARTVSSGYIYYAMDYWGQGTLVTVSSASTKGPQVQLQQSGAELMKPGASVKLSCKATGYTFTGSWIEWIKQRPGHGLEWIGQILPGSGSAYYNEKFKGKATFTADTSSKTVYIQLISLTTEDSAIYYCAREDNYGSSSLAYWGQGTLLTVSA[left out - human IgG1 constant region]
light: DIQMTQSPSSLSASVGDRVTISCRASQDIRNYLNWYQQKPGKAPKLLIFYTSKLHSGVPSRFSGSGSGTDYTLTISSLQPEDIATYYCQQGLTPPLTFGGGTKVEIKRTVAAPDILLTQSPAILSVSPGERVSFS[left out - about 80 residues][left out - about 120 residues]
notes: outer AB051, inner AB056; vectors V1, V2
Binder B1 has a Kd [1] of 0.133 nM, a koff [1] of 0.000177 s⁻¹ and a kon [1] of 1.33e+06 M⁻¹ s⁻¹. For the same binder, the EC50 [2] was 5.57 nM and the “IL-13 Neutralization Assay EC50 (A549 cells, hTARC)” value [3] was 0.2 nM.
